# Results taken from a compilation of properties of binary mixtures (doi:10.1080/00319104.2019.1566461).
# Some of these densities may be calculated back from excess volumes.
# Assay: xn = mol fraction of the nth substance listed
# Settings: 101.3 kPa
compound,measurement,setting,value
CCCCC(=O)O + CCOS(=O)(=O)[O-].CC[n+]1ccn(C)c1,mass density,"288.15 K, x1 = 0.1949",1201.5 kg/m3
same,mass density,"288.15 K, x1 = 0.2975",1181.8 kg/m3
same,mass density,"288.15 K, x1 = 0.495",1136.7 kg/m3
same,mass density,"288.15 K, x1 = 0.6941",1079 kg/m3
same,mass density,"288.15 K, x1 = 0.7905",1044.1 kg/m3
same,mass density,"288.15 K, x1 = 0.8965",997.9 kg/m3
same,mass density,"288.15 K, x1 = 0.926",983 kg/m3
same,mass density,"288.15 K, x1 = 0.9529",969.4 kg/m3
same,mass density,"288.15 K, x1 = 1",943.9 kg/m3
same,mass density,"293.15 K, x1 = 0.0974",1214.7 kg/m3
same,mass density,"293.15 K, x1 = 0.495",1133 kg/m3
same,mass density,"293.15 K, x1 = 0.6941",1075.2 kg/m3
same,mass density,"293.15 K, x1 = 0.7905",1040.2 kg/m3
same,mass density,"293.15 K, x1 = 0.8965",993.7 kg/m3
same,mass density,"293.15 K, x1 = 0.926",979 kg/m3
same,mass density,"293.15 K, x1 = 1",939.4 kg/m3
same,mass density,"298.15 K, x1 = 0.0974",1211.2 kg/m3
same,mass density,"298.15 K, x1 = 0.1949",1194.4 kg/m3
same,mass density,"298.15 K, x1 = 0.2975",1174.6 kg/m3
same,mass density,"298.15 K, x1 = 0.3947",1153.7 kg/m3
same,mass density,"298.15 K, x1 = 0.495",1129.3 kg/m3
same,mass density,"298.15 K, x1 = 0.595",1102.2 kg/m3
same,mass density,"298.15 K, x1 = 0.6941",1071.5 kg/m3
same,mass density,"298.15 K, x1 = 0.7905",1036.3 kg/m3
same,mass density,"298.15 K, x1 = 0.8965",989.6 kg/m3
same,mass density,"298.15 K, x1 = 0.926",974.7 kg/m3
same,mass density,"298.15 K, x1 = 0.9529",960.6 kg/m3
same,mass density,"303.15 K, x1 = 0.0974",1207.7 kg/m3
same,mass density,"303.15 K, x1 = 0.1949",1190.9 kg/m3
same,mass density,"303.15 K, x1 = 0.3947",1150.1 kg/m3
same,mass density,"303.15 K, x1 = 0.495",1125.7 kg/m3
same,mass density,"303.15 K, x1 = 0.595",1098.5 kg/m3
same,mass density,"303.15 K, x1 = 0.6941",1067.7 kg/m3
same,mass density,"303.15 K, x1 = 0.7905",1032.4 kg/m3
same,mass density,"303.15 K, x1 = 0.8965",985.4 kg/m3
same,mass density,"303.15 K, x1 = 0.926",970.5 kg/m3
same,mass density,"303.15 K, x1 = 1",930.2 kg/m3
same,mass density,"308.15 K, x1 = 0.0974",1204.3 kg/m3
same,mass density,"308.15 K, x1 = 0.1949",1187.4 kg/m3
same,mass density,"308.15 K, x1 = 0.2975",1167.5 kg/m3
same,mass density,"308.15 K, x1 = 0.495",1122.1 kg/m3
same,mass density,"308.15 K, x1 = 0.6941",1063.9 kg/m3
same,mass density,"308.15 K, x1 = 0.7905",1028.5 kg/m3
same,mass density,"308.15 K, x1 = 0.8965",981.3 kg/m3
same,mass density,"308.15 K, x1 = 0.926",966.2 kg/m3
same,mass density,"308.15 K, x1 = 0.9529",952 kg/m3
same,mass density,"313.15 K, x1 = 0.0974",1200.8 kg/m3
same,mass density,"313.15 K, x1 = 0.1949",1183.9 kg/m3
same,mass density,"313.15 K, x1 = 0.3947",1142.9 kg/m3
same,mass density,"313.15 K, x1 = 0.495",1118.5 kg/m3
same,mass density,"313.15 K, x1 = 0.595",1091.2 kg/m3
same,mass density,"313.15 K, x1 = 0.6941",1060.3 kg/m3
same,mass density,"313.15 K, x1 = 0.7905",1024.6 kg/m3
same,mass density,"313.15 K, x1 = 0.8965",977.2 kg/m3
same,mass density,"313.15 K, x1 = 0.926",962 kg/m3
same,mass density,"313.15 K, x1 = 0.9529",947.8 kg/m3
same,mass density,"313.15 K, x1 = 1",921.1 kg/m3
CCOS(=O)(=O)[O-].CC[n+]1ccn(C)c1 + CCCCC(=O)O,mass density,"288.15 K, x2 = 0",1236.3 kg/m3
same,mass density,"293.15 K, x2 = 0",1232.8 kg/m3
same,mass density,"298.15 K, x2 = 0",1226.3 kg/m3
same,mass density,"303.15 K, x2 = 0",1225.9 kg/m3
same,mass density,"308.15 K, x2 = 0",1222.5 kg/m3
same,mass density,"313.15 K, x2 = 0",1216 kg/m3
CCOS(=O)(=O)[O-].CC[n+]1ccn(C)c1 + CC(C)C(=O)O,mass density,"293.15 K, x2 = 0",1232.8 kg/m3
same,mass density,"298.15 K, x2 = 0",1226.3 kg/m3
same,mass density,"303.15 K, x2 = 0",1225.9 kg/m3
same,mass density,"308.15 K, x2 = 0",1222.5 kg/m3
CC(C)C(=O)O + CCOS(=O)(=O)[O-].CC[n+]1ccn(C)c1,mass density,"288.15 K, x1 = 0.1122",1221.5 kg/m3
same,mass density,"288.15 K, x1 = 0.3297",1186.2 kg/m3
same,mass density,"288.15 K, x1 = 0.4305",1166 kg/m3
same,mass density,"288.15 K, x1 = 0.5464",1139.1 kg/m3
same,mass density,"288.15 K, x1 = 0.728",1086.4 kg/m3
same,mass density,"288.15 K, x1 = 0.8127",1054.6 kg/m3
same,mass density,"288.15 K, x1 = 0.9073",1009.5 kg/m3
same,mass density,"288.15 K, x1 = 0.9336",994.1 kg/m3
same,mass density,"288.15 K, x1 = 0.9576",979.5 kg/m3
same,mass density,"288.15 K, x1 = 1",952.8 kg/m3
same,mass density,"293.15 K, x1 = 0.1122",1217.9 kg/m3
same,mass density,"293.15 K, x1 = 0.4305",1162.3 kg/m3
same,mass density,"293.15 K, x1 = 0.5464",1135.4 kg/m3
same,mass density,"293.15 K, x1 = 0.6412",1109.9 kg/m3
same,mass density,"293.15 K, x1 = 0.728",1082.3 kg/m3
same,mass density,"293.15 K, x1 = 0.9073",1005.2 kg/m3
same,mass density,"293.15 K, x1 = 0.9336",989.8 kg/m3
same,mass density,"293.15 K, x1 = 1",947.8 kg/m3
same,mass density,"298.15 K, x1 = 0.1122",1214.3 kg/m3
same,mass density,"298.15 K, x1 = 0.2295",1196.6 kg/m3
same,mass density,"298.15 K, x1 = 0.3297",1178.9 kg/m3
same,mass density,"298.15 K, x1 = 0.6412",1106.1 kg/m3
same,mass density,"298.15 K, x1 = 0.728",1078.3 kg/m3
same,mass density,"298.15 K, x1 = 0.9073",1000.8 kg/m3
same,mass density,"298.15 K, x1 = 0.9576",970.6 kg/m3
same,mass density,"298.15 K, x1 = 1",942.7 kg/m3
same,mass density,"303.15 K, x1 = 0.1122",1210.9 kg/m3
same,mass density,"303.15 K, x1 = 0.2295",1193 kg/m3
same,mass density,"303.15 K, x1 = 0.3297",1175.4 kg/m3
same,mass density,"303.15 K, x1 = 0.4305",1155 kg/m3
same,mass density,"303.15 K, x1 = 0.5464",1128 kg/m3
same,mass density,"303.15 K, x1 = 0.6412",1102.3 kg/m3
same,mass density,"303.15 K, x1 = 0.728",1074.4 kg/m3
same,mass density,"303.15 K, x1 = 0.8127",1042.2 kg/m3
same,mass density,"303.15 K, x1 = 0.9073",996.5 kg/m3
same,mass density,"303.15 K, x1 = 0.9576",966.3 kg/m3
same,mass density,"308.15 K, x1 = 0.1122",1207.5 kg/m3
same,mass density,"308.15 K, x1 = 0.2295",1189.5 kg/m3
same,mass density,"308.15 K, x1 = 0.3297",1171.8 kg/m3
same,mass density,"308.15 K, x1 = 0.4305",1151.4 kg/m3
same,mass density,"308.15 K, x1 = 0.5464",1124.3 kg/m3
same,mass density,"308.15 K, x1 = 0.6412",1098.5 kg/m3
same,mass density,"308.15 K, x1 = 0.728",1070.5 kg/m3
same,mass density,"308.15 K, x1 = 0.8127",1038 kg/m3
same,mass density,"308.15 K, x1 = 0.9073",992.1 kg/m3
same,mass density,"308.15 K, x1 = 0.9336",976.8 kg/m3
same,mass density,"308.15 K, x1 = 0.9576",961.7 kg/m3
same,mass density,"308.15 K, x1 = 1",932.6 kg/m3
same,mass density,"313.15 K, x1 = 0.1122",1204.1 kg/m3
same,mass density,"313.15 K, x1 = 0.2295",1186 kg/m3
same,mass density,"313.15 K, x1 = 0.3297",1168.3 kg/m3
same,mass density,"313.15 K, x1 = 0.4305",1147.7 kg/m3
same,mass density,"313.15 K, x1 = 0.5464",1120.5 kg/m3
same,mass density,"313.15 K, x1 = 0.6412",1094.5 kg/m3
same,mass density,"313.15 K, x1 = 0.728",1066.3 kg/m3
same,mass density,"313.15 K, x1 = 0.8127",1033.7 kg/m3
same,mass density,"313.15 K, x1 = 0.9073",988 kg/m3
same,mass density,"313.15 K, x1 = 0.9576",957.1 kg/m3
same,mass density,"313.15 K, x1 = 1",927.5 kg/m3
